Assays:
α1β2γ2 GABAA receptors [1] = target: T1, α1β2γ2 GABAA receptors (Rattus norvegicus, UniProt P62813+P63138); experiment: Direct activation (agonism) by compound alone, two-electrode voltage clamp in Xenopus oocytes; format: cell-based; set-up: expressed in transfected cells; host or cells: Xenopus laevis oocytes (cRNA injection); settings: 30 μM compound, no GABA; mean ± SD, n = 3
[2] = target: α1Mβ2Mγ2M (α1S269I, β2N265I, γ2S280I) GABAA receptors (Rattus norvegicus, UniProt P62813+P63138, N289I/S296I); experiment: Potentiation of GABA currents in triple mutant receptor, Xenopus oocytes; settings: mean ± SD, n = 3; for potentiation relative to wild-type α1β2γ2 receptors: 3 μM compound
[3] = Solubility in the electrophysiology medium; format: physicochemical; settings: limited the highest concentration tested; media with 0.5% DMSO
[4] = target: α1Mβ2γ2 (α1S269I) GABAA receptors (Rattus norvegicus, UniProt P62813+P63138, S296I); experiment: Potentiation of GABA currents in mutant receptor, Xenopus oocytes; settings: mean ± SD, n = 3
[5] = target: T2, α1-β2M-α1/γ2-β2 concatenated receptors (interface 2 M) (Rattus norvegicus, UniProt P62813+P63138, N289I); experiment: Potentiation of GABA currents in concatenated receptor mutated at interface 2, Xenopus oocytes; format: cell-based; settings: 3 μM compound, GABA EC0.5–1.5, mean ± SD, n = 3
T2 construct: concatenated to β2M-α1 (triple construct); concatenated to α1 (triple construct); concatenated to α1-β2M (triple construct); concatenated to β2 (tandem construct); concatenated to γ2 (tandem construct); expressed in transfected cells; host or cells: Xenopus laevis oocytes (cRNA injection, 25:25 nM)
Text: (§1) Each GABAA receptor contains two β+/α− subunit interfaces. Combined mutation at these interfaces greatly reduces the modulatory effects of compounds 31, 132 and 4-O-methylhonokiol. Using α1-β2-α1 and γ2-β2 subunit concatemers, we studied the effects of individual mutated interfaces. We designated receptors containing the mutant in the γ2-β2 construct interface 1 M, and the mutation in the α1-β2-α1 construct interface 2 M (Fig. 5a). The α1-β2M-α1 and γ2-β2M constructs were built, and were co-expressed with non-mutated dual or triple subunit constructs forming α1-β2-α1/γ2-β2M and α1-β2M-α1/γ2-β2 receptors. Both constructs were expressed together to form the double mutant receptor α1-β2M-α1/γ2-β2M.
(§2) Construction of tandem and triple subunit cDNAs. The tandem construct γ2-β2, and triple construct α1-β2-α1 has been described previously.
(§3) The holding potential was −80 mV.

[6] = target: T3, α1-β2-α1/γ2-β2M concatenated receptors (interface 1 M) (Rattus norvegicus, UniProt P62813+P63138, N289I); experiment: Potentiation of GABA currents in concatenated receptor mutated at interface 1, Xenopus oocytes; format: cell-based; settings: 3 μM compound, GABA EC0.5–1.5, mean ± SD, n = 3
T3 construct: concatenated to β2-α1 (triple construct); concatenated to α1 (triple construct); concatenated to α1-β2 (triple construct); concatenated to β2M (tandem construct); concatenated to γ2 (tandem construct); expressed in transfected cells; host or cells: Xenopus laevis oocytes (cRNA injection, 25:25 nM)
Text: as §1, §2, §3

[7] = target: α1β2γ2M (γ2S280I) GABAA receptors (Rattus norvegicus, UniProt P18508+P62813+P63138, S318I); experiment: Potentiation of GABA currents in mutant receptor, Xenopus oocytes; settings: mean ± SD, n = 3
[8] = target: α1β2Mγ2 (β2N265I) GABAA receptors (Rattus norvegicus, UniProt P62813+P63138, N289I); experiment: as above; settings: mean ± SD, n = 3; for potentiation relative to wild-type α1β2γ2 receptors: 3 μM compound
[9] = target: T4, α1-β2M-α1/γ2-β2M concatenated receptors (double M) (Rattus norvegicus, UniProt P62813+P63138, N289I); experiment: Potentiation of GABA currents in concatenated double mutant receptor, Xenopus oocytes; format: cell-based; settings: 3 μM compound, GABA EC0.5–1.5, mean ± SD, n = 3
T4 construct: concatenated to β2M-α1 (triple construct); concatenated to α1 (triple construct); concatenated to α1-β2M (triple construct); concatenated to β2M (tandem construct); concatenated to γ2 (tandem construct); expressed in transfected cells; host or cells: Xenopus laevis oocytes (cRNA injection, 25:25 nM)
Text: as §1, §2, §3

α1β2γ2 GABAA receptors [10] = target: T1, α1β2γ2 GABAA receptors; experiment: Potentiation of GABA-elicited currents, two-electrode voltage clamp in Xenopus oocytes; settings: 3 μM compound + GABA EC0.5, 1 μM Ro 15-1788; mean ± SD, n = 4

current elicited by compound alone, of the maximal current amplitude elicited by GABA (α1β2γ2 GABAA receptors [1]) [%]	potentiation relative to wild-type α1β2γ2 receptors [2] [%]	solubility [3]	modulation relative to wild-type α1β2γ2 receptors ([4]; 3 μM compound) [%]	residual relative potentiation, of concatenated wild-type [5] [%]	residual relative potentiation, of concatenated wild-type [6] [%]	modulation relative to wild-type α1β2γ2 receptors ([7]; 3 μM compound) [%]	potentiation relative to wild-type α1β2γ2 receptors [8] [%]	modulation relative to α1-β2-α1/γ2-β2 concatenated receptors [9] [%]	Relative current amplitude in the presence vs. absence of the antagonist Ro 15-1788 (α1β2γ2 GABAA receptors [10]) [%]	SMILES	residual potentiation relative to α1β2γ2 ([2]; 1 μM compound) [%]	modulation relative to wild-type α1β2γ2 receptors ([4]; 1 μM compound) [%]	modulation relative to wild-type α1β2γ2 receptors ([7]; 1 μM compound) [%]	residual potentiation relative to α1β2γ2 ([8]; 1 μM compound) [%]
0.3 ± 0.13	2.3 ± 0.8	poor solubility	77 ± 24	51 ± 3	28 ± 6	87 ± 52	10.4 ± 8.5	1 ± 5	112 ± 8	Cc1ccccc1C(=O)N1CCN=C1SCc1cccc(Cl)c1 [compound 31]				
0.3 ± 0.13	−0.4 ± 5.1	poor solubility	118 ± 44			91 ± 21	7.3 ± 6.8	−2 ± 0.4	115 ± 14	COc1ccc(C)c2sc(N(Cc3cccnc3)C(=O)COc3ccccc3)nc12 [compound 132]				
										C=CCc1ccc(O)c(-c2ccc(OC)c(CC=C)c2)c1 [4-O-methylhonokiol]	2.2 ± 0.2	63 ± 6	79 ± 16	15.6 ± 1.5

From publication PMC4873749, “Novel positive allosteric modulators of GABAA receptors with anesthetic activity” (Scientific Reports, 2016)
